In article PMC8292346, “Dysfunction of the key ferroptosis-surveilling systems hypersensitizes mice to tubular necrosis during acute kidney injury” (Nature Communications, 2021):

Tested on: freshly isolated primary murine renal tubules
Test: Spontaneous LDH release over time of freshly isolated kidney tubules (glycine medium)
Format: cell-based
Details: mice injected 2 mg/kg 30 min before kidney removal
Protocol: The LDH release of cells or of freshly isolated kidney tubules was measured according to manufacturers’ instructions at indicated time points. In brief, an aliquot of the supernatant was taken and Lysis Solution was added for 45 min to induce maximal LDH release before another aliquot of the supernatant was taken. Subsequently, the supernatants were incubated with CytoTox 96® Reagent for 15 min protected from light at room temperature before adding Stop Solution. Absorbance was measured at 490 nm.
Primary murine renal tubules were isolated following a modified previously established protocol. […] Kidney slices of each kidney were transferred in 2 ml reaction tube containing 2 mg/ml collagenase type II in incubation solution (48 μg/ml trypsin inhibitor, 25 μg/ml DNAse I, 140 mM NaCl, 0.4 mM KH2PO4, 1.6 mM K2HPO4 · 3 H2O, 1 mM MgSO4 · 7 H2O, 10 mM CH3COONa · 3 H2O, 1 mM α-ketoglytarate and 1.3 mM Ca-gluconate) and digested for 5 min at 37 °C, 850 rpm. Due to the presence of damaged tubules, the first resulting supernatant was discarded and 1 ml of 2 mg/ml collagenase type II in incubation solution was added to the kidney slices and digested for 5 min at 37 °C, 850 rpm. The supernatant was collected and transferred in a 2 ml reaction tube containing 1 ml ice-cold sorting solution (0.5 mg/ml bovine albumin in incubation solution). The reaction tubes were left on ice for the tubules to precipitate. The supernatant was removed and the tubules were washed twice with ice-cold incubation solution. Once the tubules precipitated the supernatant was removed and the ice-cold sorting solution was added (the volume was adjusted depending on the number of samples needed for the experiment). Tubules were distributed in a twenty-four-well plate containing Dulbecco’s Modified Eagle Medium F-12 Nutrient Mixture without phenol red (DMEM/F12, Thermo Fisher), supplemented with 0.01 mg/ml recombinant human insulin, 5.5 μg/ml human transferrin, 0.005 μg/ml sodium selenite (Na2SeO3) (ITS without linoleic acid, Sigma Aldrich), 50 nM hydrocortisone, 100 U/ml penicillin, and 100 μg/ml streptomycin (Pen/Strep, Thermo Fisher).
All of the experiments performed contain a negative control to assess LDH release at 0 h of incubation as a quality control. No more than 10% LDH release in these negative controls was tolerated. […] Isolated murine renal tubules were placed in twenty four-well plates containing the respective agents diluted in Dulbecco’s Modified Eagle Medium F-12 Nutrient Mixture without phenol red (DMEM/F12, Thermo Fisher), supplemented with 0.01 mg/ml recombinant human insulin, 5.5 μg/ml human transferrin, 0.005 μg/ml Na2SeO3 (ITS without linoleic acid, Sigma Aldrich), 50 nM hydrocortisone, 100 U/ml penicillin, and 100 μg/ml streptomycin (Pen/Strep, Thermo Fisher). After the indicated time points, the medium of each well was collected and tubules were prepared for an LDH release assay. Images of the treated murine renal tubules were obtained using a 20x/0.30 PH1 objective on a Leica DMi1 microscope.

| SMILES | LDH release (0 hours) | LDH release (2 hours) | LDH release (4 hours) | LDH release (6 hours) | LDH release (8 hours) | LDH release (24 hours) |
| --- | --- | --- | --- | --- | --- | --- |
| CCOC(=O)c1ccc(NC2CCCCC2)c(N)c1 [Fer-1, ferrostatin-1] | 5.29% | 12.36% | 14.81% | 19.61% | 18.71% | 64.13% |
| CN1C(=O)C(Cc2c[nH]c3c(Cl)cccc23)NC1=S (stereo not drawn) [Nec-1f] | 6.47% | 15.29% | 17.46% | 20.94% | 23.28% | 68.19% |
